# Article PMC12136788
# Some of the results follow.
# T1: UNK ZnF1-3 (human, UniProt Q9C0B0 31-174)
# T1 sequence: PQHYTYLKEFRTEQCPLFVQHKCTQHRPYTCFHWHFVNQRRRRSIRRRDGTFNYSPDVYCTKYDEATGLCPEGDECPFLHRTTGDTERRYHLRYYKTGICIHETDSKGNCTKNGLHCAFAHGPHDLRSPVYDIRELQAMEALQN
# B1: chr9:50413139:50413140:+_ENSMUSG00000039016_ENSMUST00000044051|mus_mus|FALSE|FALSE (ssRNA)
# RNA: GGGAGUUCUACAGUCCGACGAUCGAUCUGGGCAAACCGACCGGUGAUGGCAAGAGUAGUGUCAAUGAAGCGAUCCACACAGCUAGAGAGGCAGUUUUCAGUGCGGGAGUCUAGCCGACUUCCUGGCUUCUCCACACACUUAUCCAACAGAGGAUUGAGCAUCA
# B2: chr1:52246310:52246311:-_ENSMUSG00000026103_ENSMUST00000114513|mus_mus|FALSE|FALSE (ssRNA)
# RNA: GGGAGUUCUACAGUCCGACGAUCGCCCAUCUUGUCAAGAGGAGGAGACCAACACAUCAUGCCCAUGACGUUGGGGACAACUAAAAGAAUACCCCCAGCAACUCCAGAUUUUGCAGGAAGACCAACAUGGAACGCAAACUGCCCCAACAGAGGAUUGAGCAUCA
# B3: chr12:42180722:42180723:-_ENSMUSG00000036295_ENSMUST00000043884|mus_hu|mus_mus_mus_hu_True|8_88 (ssRNA)
# RNA: GGGAGUUCUACAGUCCGACGAUCCUGUAGGAGAAGAAUCUGUGUGUCGGCAGGCAAUCUGGCUGGGAAAGUUAAAAGACCUAAAUCAUUACAAUCCACUGUAGAUGCUUCCAUAUAAAUGGAUCUGGGGGUAAACCAAGGCCUCAACAGAGGAUUGAGCAUCA
# B4: chr11:70698419:70698420:+_ENSMUSG00000020817_ENSMUST00000076270|mus_mus|FALSE|FALSE (ssRNA)
# RNA: GGGAGUUCUACAGUCCGACGAUCUUUCAUUAUAGCCUGAAGUGAAGCAACUUCUUCUCUCCAUUGCCUUUUAACUUCAUCUAUAGCUUCUUGCUUAGUAUUCUCAGAGACUGUGGCAAUUGCCUUAAUGUUCUCCAUCUCUGCCAACAGAGGAUUGAGCAUCA
# B5: 79877754_79877874_3371_3pUTR_ENSG00000197063_ENST00000357736|human|control|control (ssRNA)
# RNA: GGGAGUUCUACAGUCCGACGAUCGAGGUAUGGCCUCGAAACUCCAGAAGCCUCUUCUGCCAACGCACCGAGGACCUGCACCUCCCAUUCAGCACGCGUCGACCCUUACACCCUCCUCUUCCACACUCCCUUCGCCUCCAGGUCCAACAGAGGAUUGAGCAUCA
# B6: chr7:141441981:141441982:+_ENSG00000106028_ENST00000265304|hu_mus|hu_hu_hu_mus_False|1_48 (ssRNA)
# RNA: GGGAGUUCUACAGUCCGACGAUCCUCAUGUCUUACAAACUGACGAAAUACCUGUAACACAGGUCUUCGAAACAUGGCUUCUGUUUUCUUUUCUUACUAAUCUUUAGGCUUUUCCUAAAGGAAAGAAAGAAAAGAGAAGCCCAGCAACAGAGGAUUGAGCAUCA
# B7: chr3:122252165:122252166:-_ENSMUSG00000039735_ENSMUST00000162409|mus_hu|FALSE|FALSE (ssRNA)
# RNA: GGGAGUUCUACAGUCCGACGAUCAAUGCGCUGCUGUAGUUUUUUACGUCUCUGUUCUGGUGGCAGAUGACUGAAAUCUUCUAGUGCUGGGCCCUUUGGCUUCUUUCCAAAGAGCCACAAUUUGCCCUUGGCCUUUCCUACUGUCAACAGAGGAUUGAGCAUCA
# B8: chr13:47345604:47345605:-_ENSG00000139684_ENST00000378720|perfect_dup|motif|central (ssRNA)
# RNA: GGGAGUUCUACAGUCCGACGAUCCAGGUACUUAGCAUGGUGUCUGAUGUGGUCAGCGAUGAAAGUUGCAAUGAAGUAGUAGCGGUGAUCAUAACCCUCUUGUAGUCUAAACACAACAGGGAUUUUCUUCUCUGUGCAGGCAGCCAACAGAGGAUUGAGCAUCA
# B9: chr7:108137184:108137185:-_ENSG00000135241_ENST00000257694|hu_hu|motif|central (ssRNA)
# RNA: GGGAGUUCUACAGUCCGACGAUCUCGAUAAAGUUCCUCACAUUCAUCCAAGGGCAUAUGAAACAACCCCAACAUGAAAGCGGAUAUGGCACCUGUGCUUACACCACAAAUGUAAUCAAAGAGCUGAUGAACUGGCUUCUGAGUCAACAGAGGAUUGAGCAUCA
# B10: chr5:56189439:56189440:+_ENSG00000095015_ENST00000399503|hu_hu|motif|central (ssRNA)
# RNA: GGGAGUUCUACAGUCCGACGAUCAAAGACUGGAUGCUUCAGUAGCUCUCUUGAUGGAGGUCUGUCCUGAGGUUGAAGUUCGGAACAACGAAGAGCCACAUCUCGUAAACCAGGAGACAAAUGUGAAGGGAUCGAUGGAGCAGUCAACAGAGGAUUGAGCAUCA
# B11: chr9:24234919:24234920:-_ENSMUSG00000043067_ENSMUST00000142064|mus_hu|FALSE|FALSE (ssRNA)
# RNA: GGGAGUUCUACAGUCCGACGAUCGUAAACCAGCUCUCCAUGAUCAAACUGGUGUUUUCUUACAUGUGUCUGUUGUUUAGCUAAGACACCCCACAUAUCACUAAUAAUCUUUCUAACAAUAGCAACAAACACUACAAGAACAACCAACAGAGGAUUGAGCAUCA
# B12: chr1:235506033:235506034:+_ENSG00000152904_ENST00000391855|hu_hu|FALSE|FALSE (ssRNA)
# RNA: GGGAGUUCUACAGUCCGACGAUCUUAACAUUAUUCAUUUUCUUCUUUGAACAUCUUACUUAAGUGUUUUACUAAGGCUACUAGCUCAGGGUUCCCACCACGUGCAUCAAUCUGUUUAUAGGCUUUAGCUUCAAGCUCUUUAAGCAACAGAGGAUUGAGCAUCA
# B13: chr1:184247048:184247049:-_ENSMUSG00000047539_ENSMUST00000051431|mus_mus|motif|central (ssRNA)
# RNA: GGGAGUUCUACAGUCCGACGAUCCUGGAGCUAGAGCCAUAUUCCAAUCUACUUCCUAUUCCGAAGUCGUUUGGAUUUCCGGAGAGAGUCUAUGGCUUCCGUUGCCUUCCGUCGUUUCCGAGGGGACUCCUCACUCUGCCCAGACAACAGAGGAUUGAGCAUCA
# B14: chr2:71371598:71371599:+_ENSG00000124383_ENST00000244230|hu_hu|motif|central (ssRNA)
# RNA: GGGAGUUCUACAGUCCGACGAUCAAAGUGGAAGUUUGAGAGGGCAUCCAAUUUUAAGAAGAGGGAAUCCAUCAUCUUCUGAAUUUCGGCAUGUUCUGGAUUUUCUUCUUCUGCUGUUUUUUGCUGGUUGAGUUUGAUGUACUCCAACAGAGGAUUGAGCAUCA
# Molecular target: T1, UNK ZnF1-3
# Assay: nsRBNS (natural sequence RNA bind-n-seq); RBNS binding buffer (assumed for nsRBNS): 25 mM Tris pH 7.5, 150 mM KCl, 3 mM MgCl2, 0.01% Triton X-100, 500 ug/ml BSA, 20 U/ml SUPERase-In, 4 C; UNK is unkempt and MSI1 is Musashi-1; names of the RNAs are library labels; protein concentration not given here; high values mean tight binding
row,Binder,binding signal [enrichment R]
1,B1,1.86
2,B2,1.31
3,B3,1.17
4,B4,0.444
5,B5,1.15
6,B6,0.31
7,B7,0.449
8,B8,1.24
9,B9,1.15
10,B10,1.19
11,B11,1.21
12,B12,0.715
13,B13,0.741
14,B14,1.09
